The whole screen tested about 220,000 compounds, of which about 16,000 (7.3%) were called active. Inconclusive means that the source gave no clear call. Such entries were picked first, then a sample of the others. Calls come from the whole dose curve; as a rule, active = well fitted inhibition curve with a large enough effect (not every such curve was filed as active); inconclusive = small, poorly fitted or top-dose-only effect, or another doubt; inactive = no such curve, though single readings can be large or run the other way. Potencies of inconclusive entries are left out as doubtful fits. More than one record can exist for a structure, and the calls need not agree.
Target: Aldehyde dehydrogenase 1A1 (Homo sapiens) (UniProt P00352)
UniProt P00352, sequence (P00352 whole entry, looked up): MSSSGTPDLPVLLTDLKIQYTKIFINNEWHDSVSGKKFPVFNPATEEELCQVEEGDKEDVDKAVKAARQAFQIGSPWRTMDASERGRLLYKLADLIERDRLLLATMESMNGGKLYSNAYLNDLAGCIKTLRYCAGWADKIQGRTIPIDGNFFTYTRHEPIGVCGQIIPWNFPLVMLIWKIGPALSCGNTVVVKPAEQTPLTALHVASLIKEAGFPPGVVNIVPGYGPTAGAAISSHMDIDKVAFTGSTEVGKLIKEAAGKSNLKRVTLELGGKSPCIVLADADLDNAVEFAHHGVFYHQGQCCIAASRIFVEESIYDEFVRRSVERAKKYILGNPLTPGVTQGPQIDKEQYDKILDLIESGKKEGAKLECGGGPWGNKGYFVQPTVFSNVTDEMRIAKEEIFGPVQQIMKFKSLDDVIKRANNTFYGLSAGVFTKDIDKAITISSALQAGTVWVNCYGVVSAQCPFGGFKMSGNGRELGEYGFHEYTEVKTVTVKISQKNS
Assay: qHTS Assay for Inhibitors of Aldehyde Dehydrogenase 1 (ALDH1A1);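 for activity, negative = inhibition: plate controls were no enzyme wells and a reference inhibitor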
Conditions: Purified ALDH1A1, NADH fluorescence, propionaldehyde substrate; series mostly up to 75.3 µM; activity, negative = inhibition: at the top concentration
Potency is the fitted concentration of half-maximal effect; tags give direction and shape of the fitted curve.

Row | SMILES | Potency | activity, negative = inhibition
1 | COc1ccc(N(Cc2ccccc2)S(=O)(=O)c2cccc(C(=O)NC3=NCCS3)c2)cc1 | inconclusive [inhibitor, partial curve] | –
2 | O=S(=O)(c1cccc(C(F)(F)F)c1)N(CCCN1CCOCC1)Cc1cccs1 | active: 12.6 µM | –
3 | COc1ccc(OC)c(/C=C/C(=O)Nc2ccc3c(c2)CCC3)c1 | inconclusive [inhibitor, single point] | –
4 | Cn1c(=O)c2c(nc(NCCc3ccccc3)n2Cc2ccccc2)n(C)c1=O | – | inactive: 4.03%
5 | CC1CCCC(NC(=O)COC(=O)[C@@H]2CC(O)CN2S(=O)(=O)c2ccc3c(c2)OCCO3)C1C (some centres not stated) | inconclusive [inhibitor, single point] | –
6 | CCNC(=O)c1ccc(-n2nc(C)cc2-c2ccccc2)cc1 | inconclusive [inhibitor, partial curve] | –
7 | Cc1csc(SCC(=O)NC(=O)C2CCCCC2)n1 | – | inactive: 12.5%
8 | COc1cccc(OC)c1CC1SC(=O)NC1=O (configuration not stated) | – | inactive: 3.58%
9 | O=C(N/N=C/c1cccc(Cl)c1Cl)Nc1ccccc1 | inconclusive [inhibitor, full curve] | –
10 | O=C(COc1ccc(-c2ccccc2)cc1)N1CCCC1 | active: 12.6 µM | –
11 | c1ccc(CNc2nc3ccccc3n3cnnc23)cc1 | inconclusive [inhibitor, single point] | –
12 | O=C(COc1ccc(S(=O)(=O)N2CCCC2)cc1)NCC1CCCO1 (configuration not stated) | – | inactive: -3.76%
13 | CCOC(=O)c1ccc(N2C(=O)CC(N3CCOCC3)C2=O)cc1 (configuration not stated) | active: 25.1 µM | –
14 | CCOc1ccc(NC(=O)CC2C(=O)N(c3ccccc3)C(=O)N2CCc2cccs2)cc1 (configuration not stated) | inconclusive [inhibitor, partial curve] | –
15 | O=C(CSc1nnnn1C1CCCCC1)Nc1ccc2c(c1)OCO2 | active: 7.94 µM | –
16 | Cc1ccc(C(=O)CCCn2nnc(-c3cccnc3)n2)cc1C | inconclusive [inhibitor, single point] | –
17 | O=C1c2ccccc2C(=O)N1CCC(O)C[N+](=O)[O-] (configuration not stated) | active: 22.4 µM | –
18 | CCOC(=O)c1c(NC(=O)COC)sc2c1CCCC2 | inconclusive [inhibitor, single point] | –
19 | COc1ccc(NC(=O)C/C(C)=N/NC(=O)c2ccncc2)c([N+](=O)[O-])c1 | active: 3.55 µM | –
20 | COc1cccc(C(=O)NCC2(c3ccccc3)CCCC2)c1 | inconclusive [inhibitor, single point] | –
21 | COc1cc(/C=C2/NC(=O)N(CC(=O)Nc3ccc(C)cc3)C2=O)ccc1Oc1ccc([N+](=O)[O-])cn1 | – | inactive: -1.41%
22 | O=C(Cc1cccs1)N1CCCC(c2nc3c(nnn3Cc3ccccc3Cl)c(=O)[nH]2)C1 (configuration not stated) | inconclusive [inhibitor, single point] | –
23 | COc1cc(C2CC(=O)N3CN(Cc4ccco4)CSC3=C2C#N)ccc1OCc1ccccc1 (configuration not stated) | active: 7.94 µM | –
24 | CCOc1ccc(C(=O)NCC(=O)OC2CCOC2=O)cc1OCC (configuration not stated) | inconclusive [inhibitor, single point] | –

Row | SMILES | Potency | activity, negative = inhibition
25 | OCCNC(=S)Nc1ccc2nsnc2c1 | – | inactive: -0.988%
26 | Cn1c(=O)c([N+](=O)[O-])c(Cl)c2ccccc21 | active: 17.8 µM | –
27 | CCS(=O)(=O)N1CCN(c2ccc([N+](=O)[O-])c(N3CCOCC3)c2)CC1 | – | inactive: -2.43%
28 | CCCOc1ccc2oc(=O)c3c(c2c1)CCCN3C(=O)CN1CCN(C(=O)c2ccco2)CC1 | inconclusive [inhibitor, partial curve] | –
29 | CCOc1ccc2[nH]c(=O)c(CN(CCc3ccccc3)C(=O)N3CCOCC3)cc2c1 | inconclusive [inhibitor, partial curve] | –
30 | O=C(CSc1nc2ccccc2c(=O)n1Cc1ccccc1)NCc1ccco1 | inconclusive [inhibitor, single point] | –
31 | COc1ccc(NC(=O)c2c(SC)nsc2SC)cc1 | inconclusive [inhibitor, single point] | –
32 | Cc1ccc(C)c(NC(=S)NCCSc2ccc(Cl)cc2)c1 | – | inactive: -5.56%
33 | CCn1c(SCC(=O)N2CCCCC2C)nnc1-c1ccc(S(=O)(=O)N2CCN(C)CC2)cc1 (configuration not stated) | inconclusive [inhibitor, single point] | –
34 | CN1CCN(c2ncc3nc(-c4cn(C)c5ccccc45)c(=O)n(C)c3n2)CC1 | inconclusive [inhibitor, single point] | –
35 | Cc1sc(NC(=O)c2ccco2)c(C(c2cccnc2)N2CCN(c3ccc(F)cc3)CC2)c1C (configuration not stated) | inconclusive [inhibitor, single point] | –
36 | COC(=O)c1ccccc1NC(=S)N(Cc1ccc2c(c1)OCO2)Cc1cc2cc(OC)ccc2[nH]c1=O | inconclusive [inhibitor, single point] | –
37 | Cc1c(C(=O)OCC(=O)Nc2cccc(S(N)(=O)=O)c2)oc2c1ccc1ccccc12 | inconclusive [inhibitor, single point] | –
38 | S=c1[nH]nc(-c2cc(-c3ccccc3)n[nH]2)n1/N=C/c1cccs1 | – | inactive: 10.3%
39 | COc1ccc(-c2nn(C)c(=O)c3ccccc23)cc1NC(=O)COc1ccccc1 | inconclusive [inhibitor, partial curve] | –
40 | CSc1nn(CCc2ccncc2)c(=S)s1 | inconclusive [inhibitor, partial curve] | –
41 | CCCC(=O)N1N=C(c2ccccc2)CC1c1cn(C)c2ccccc12 (configuration not stated) | inconclusive [inhibitor, single point] | –
42 | Cc1ccccc1NC(=O)COc1ccc2c(c1)OC(C)(C)CC2=O | active: 14.1 µM | –
43 | Nc1[nH]n2c(=O)cc(-c3ccccc3)nc2c1N=Nc1ccccc1 | – | inactive: 1.83%
44 | CCOC(=O)c1cc(-c2ccccc2)nc2nc(N3CCCCC3)sc12 | inconclusive [inhibitor, partial curve] | –
45 | O=C1CCCCC1Sc1nnc(-c2ccc3c(c2)OCO3)o1 (configuration not stated) | – | inactive: -0.574%
46 | CCOc1cc2[nH]c(=S)n(CCCN3CCCC3=O)c(=O)c2cc1OCC | inconclusive [inhibitor, single point] | –
47 | Cc1ccc(Cn2c(=O)n(CCC(=O)NCc3ccc4c(c3)OCO4)c(=O)c3ccccc32)cc1 | – | inactive: 1.46%
48 | COC(=O)C1=C(C)NC(=O)NC1/C=C/c1ccccc1 (configuration not stated) | – | inactive: 4.26%

Row | SMILES | Potency | activity, negative = inhibition
49 | CCN(CC)c1ccc(CN(C(=O)c2ccco2)C2CCS(=O)(=O)C2)cc1 (configuration not stated) | active: 22.4 µM | –
50 | COC(=O)c1cc(-c2ccc(C)o2)nc2ccccc12 | inconclusive [inhibitor, partial curve] | –
51 | COc1ccc([N+](=O)[O-])cc1NC(=S)NC(=O)C(C)(C)C | inconclusive [inhibitor, single point] | –
52 | COc1ccc(S(=O)(=O)N2CCc3ccccc32)cc1C(=O)OCc1c(C)noc1C | active: 3.16 µM | –
53 | Cn1c(=O)oc2cc(S(=O)(=O)Nc3cccc4c3CCCC4)ccc21 | inconclusive [inhibitor, single point] | –
54 | Cc1ccc(C(=O)NCCn2cc(SCC(=O)N3CCOCC3)c3ccccc32)cc1 | – | inactive: -10.6%
55 | O=C1CC(/C=C/c2ccccc2)(C(=O)NC2CCCC2)N1c1ccc(S(=O)(=O)N2CCCC2)cc1 (configuration not stated) | inconclusive [inhibitor, single point] | –
56 | COc1ccc(-c2nc(CSCC(=O)NC3CCCc4ccccc43)c(C)o2)cc1 (configuration not stated) | inconclusive [inhibitor, single point] | –
57 | Cc1nn(C)c(C)c1/C=C/C(=O)c1ccccc1 | inconclusive [inhibitor, single point] | –
58 | O=C(Nc1ccc(Cl)cc1)Nc1ccccc1C(=O)NCc1ccco1 | inconclusive [inhibitor, single point] | –
59 | COc1ccc(COc2cc(-c3cccc(OC)c3)nc3ccc(NC(C)=O)cc23)cc1 | inconclusive [inhibitor, partial curve] | –
60 | O=C(CN1CCOCC1)Nc1nc2ccc(Br)cc2s1 | active: 12.6 µM | –
61 | COc1cc(C(=O)Nc2nnc(C3CC3)s2)ccc1OCc1c(C)noc1C | – | inactive: -7.9%
62 | NNC(=S)NC1CCCCC1 | – | inactive: -3.45%
63 | c1ccc(-c2cc(-c3cc(-c4ccccn4)[nH]n3)n[nH]2)nc1 | – | inactive: -2.23% [at 13.5 µM]
64 | O=C(CN1C(=O)CSC1=O)Nc1ccc(C(=O)O)cc1 | inconclusive [inhibitor, single point] | –
65 | CCCCC(OC(=O)c1cc2occc2n1C)C(=O)NCC1CCCO1 (configuration not stated) | inconclusive [inhibitor, single point] | –
66 | CCC(=O)/C=C/C1C(C)=CCCC1(C)C (configuration not stated) | active: 12.6 µM | –
67 | CN(C)CC/C=C1\c2ccccc2COc2ccccc21 | active: 17.8 µM | –
68 | CCc1c(C)sc(NC(=O)c2cccs2)c1C(=O)OC(C)C | inconclusive [inhibitor, partial curve] | –
69 | CCN1CC2([N+](=O)[O-])C=CC(=O)C([N+](=O)[O-])(C1)C2CC(=O)c1ccccc1 (configuration not stated) | inconclusive [inhibitor, single point] | –
70 | CCCCN(C)Cc1c(C(=O)N2CCc3ccccc3C2)nc2ccc(Cl)cn12 | inconclusive [inhibitor, partial curve] | –
71 | Cc1ccc(S(=O)(=O)N2CCC(C(=O)Nc3ccccc3N3CCCCC3)CC2)cc1 | inconclusive [inhibitor, full curve] | –
72 | Cc1ccc(Cl)cc1N1CCN(C(=O)Cc2cn(C)c3ccccc23)CC1 | inconclusive [inhibitor, single point] | –
